Experimental data published in PubChem BioAssay AID463173 (ICCB-Longwood Screening Facility, Harvard Medical School, 2010).
Screen size: about 52,000 compounds; about 1,700 (3.3%) were called active. Rule as the data show it: active = survival mostly below about 52% (no sharp cut-off); inactive = mostly above about 56%. The list shows a part of the results.

The compounds below were run on Wild type (assay: growth inhibition of S. aureus wild type versus tarO mutant, primary screen, teichoic acid synthesis inhibitors, RN4220, OD600 (AID 463173)). Details: S. aureus RN4220 wild type/DeltatarO growth, OD600, 18 h, hits give low values, screened at 18.75 µg/mL (by protocol).
In the case of `CCOc1ccc(CCNC(=O)CSc2nc3ccccc3nc2Cc2ccc(C)cc2)cc1OCC`, the survival is reported as inactive: 121%. In the case of `COc1ccc(-c2nc3sc(CCNC(=O)Cc4ccc(Cl)cc4)c(C)n3n2)cc1`, the survival is reported as inactive: 83%. In the case of `CCN(CC)c1ccc(C(=O)NCc2ccc3c(c2)CCN3C(=O)c2cccc(C)c2)cc1`, the survival is reported as inactive: 73%. With `CCN(CC)c1ccc(NC(=O)CN(C)S(=O)(=O)c2cccc3nsnc23)c(C)c1` the survival was inactive: 129%. For `CCOc1ccc(C2C(=O)N(C3CCCCCC3)CC(=O)N2Cc2ccc(F)cc2)cc1OC` (configuration not stated), the survival was inactive: 128%. `CCOc1ccccc1NC(=O)Nc1ccc2nc(N3CCN(C)CC3)cc(C)c2c1` was tested, and the survival was inactive: 83%. In the case of `CCOc1ccc(CCNC(=O)C(CC(C)C)N2Cc3ccccc3C2=O)cc1OCC` (configuration not stated), the survival is reported as inactive: 69%. With `Cc1ccc(CS(=O)Cc2ccc(C(=O)NCc3ccccc3Cl)o2)cc1` (configuration not stated) the survival was inactive: 83%. With `Cc1ccc(NC(=O)C2CCCN(c3cnccn3)C2)cc1Cl` (configuration not stated) the survival was inactive: 85%. In the case of `CCOc1ccc(NC(=O)CCc2nc3cccnc3n2Cc2ccc(OC)cc2)cc1`, the survival is reported as inactive: 98%. With `Cc1ccccc1CN1C(=O)c2ccccc2Sc2ccc(C(=O)O)cc21` the survival was inactive: 121%. `Cc1ccc(N(CC(=O)NC2CCCC2)C(=O)c2ccc(N3CCCC3)nc2)cc1` was tested, and the survival was inactive: 104%. With `Nc1nnc(SCC(=O)Nc2cccc(F)c2)s1` the survival was inactive: 160%. For `COc1ccccc1C(=O)Nc1cccc(OCc2cc(=O)n3c(C)csc3n2)c1`, the survival was inactive: 75%. `O=S(=O)(c1cc(Br)c(Br)s1)N1CCN(c2ccccc2)CC1` was tested, and the survival was inactive: 75%. With `Clc1ccc(Nc2nc(-c3ccccc3)c3ccccc3n2)c(Cl)c1` the survival was inactive: 86%. `CC(C)c1ccc(NC(=O)C2CCN(S(=O)(=O)c3ccc(Br)s3)CC2)cc1` was tested, and the survival was inactive: 75%. With `Cc1ccc(S(=O)(=O)c2nnn3c2nc(NCc2ccccc2)c2sccc23)cc1` the survival was inactive: 86%. With `O=c1[nH]c(-c2ccccc2)nn1-c1ccc(Br)cc1Br` the survival was inactive: 106%. With `CCOc1ccc(CCNC(=O)c2cc3cc4cc(OC)ccc4nc3s2)cc1OCC` the survival was inactive: 117%. In the case of `COc1ccc(-c2noc(N3CCN(c4ccc(Cl)cc4)CC3)n2)cc1OC`, the survival is reported as inactive: 71%. `CCc1nn2c(=O)cc(COC(=O)c3cccc(NC(=O)COc4ccccc4)c3)nc2s1` was tested, and the survival was inactive: 89%. With `COc1cccc(NC(=O)CCSc2nc(-c3ccco3)cc(C(F)(F)F)n2)c1` the survival was inactive: 40%. `COc1ccc2c(c1)CCc1c(C(=O)Nc3cnn(Cc4ccc(Cl)cc4Cl)c3)noc1-2` was tested, and the survival was inactive: 118%. For `COc1ccccc1NC(=O)C1=C(C)Nc2nc(SCc3ccccc3F)nn2C1c1ccncc1` (configuration not stated), the survival was inactive: 146%. `CC(C)Cc1nn2c(=O)cc(COC(=O)c3ccccc3NC(=O)c3cccs3)nc2s1` was tested, and the survival was inactive: 76%. With `CCOc1ccccc1NC(=O)C(=O)c1cc(C)n(-c2cccc(C)c2C)c1C` the survival was inactive: 99%. `Cc1cccc(NC(=O)CCN2CCC(C)CC2)c1` was tested, and the survival was inactive: 104%. With `CCc1cccc(C)c1NC(=O)C1CCN(c2nnc(C)c3c(C)n(-c4ccccc4)nc23)CC1` the survival was inactive: 73%. With `Cc1cccc(NC(=O)C2CCN(S(=O)(=O)c3ccc4[nH]c5c(c4c3)CCCCC5)CC2)c1` the survival was inactive: 80%. For `Cc1cc(C)cc(NC(=O)Cn2cc(C(=O)c3ccncc3)c(=O)c3cc(C)c(C)cc32)c1`, the survival was inactive: 93%. For `CCOC(=O)C(C)C1(O)c2ccccc2-c2ncccc21` (configuration not stated), the survival was inactive: 109%. `COc1ccc(CNC(=O)C2CCN(S(=O)(=O)c3ccc4nc5c(c(C(=O)O)c4c3)CCCC5)CC2)cc1` was tested, and the survival was inactive: 95%. For `C=CCNCc1cccn1-c1ccccc1`, the survival was inactive: 115%. For `CCCCCn1c(=O)[nH]c2cc(C(=O)N3CCN(c4cccc(Cl)c4)CC3)ccc2c1=O`, the survival was inactive: 85%. With `Cc1ccccc1NC(=O)c1cc2sccc2n1Cc1ccc(F)cc1` the survival was inactive: 104%. For `CN(c1ccccc1)S(=O)(=O)c1nnc(NC(=O)c2ccco2)s1`, the survival was inactive: 70%. With `COc1ccc(OC)c(CNC(=O)c2cc(S(=O)(=O)N3CCC(C)CC3)cn2C)c1` the survival was inactive: 89%. For `COc1cc2oc(=O)c(CC(=O)NCCc3ccccc3)c(C)c2cc1Cl`, the survival was inactive: 90%. With `COc1cc(/C=N/NC(=O)c2cccc(N3CCCC3=O)c2)ccc1O` the survival was inactive: 108%. With `CSc1nn(Cc2ccccc2C)c(NC(C)=O)c1S(=O)(=O)c1ccc(C)cc1` the survival was inactive: 78%. For `COc1ccc(NC(=O)CCc2nc3c(C)nn(-c4ccc(C)cc4)c3n(C)c2=O)c(OC)c1`, the survival was inactive: 90%. With `CCOC(=O)CCn1c(=O)c2cccn2c2cccnc21` the survival was inactive: 88%. With `COCCN1Cc2cccc(C(=O)Nc3ccc(C(=O)OC)cc3)c2C1=O` the survival was inactive: 86%. In the case of `Cc1cc2cc(CCNS(=O)(=O)c3ccc(Br)cc3)c(=O)[nH]c2cc1C`, the survival is reported as inactive: 57%. With `Cc1ccc(NC(=O)c2cc(S(=O)(=O)N3CCC(C)CC3)cn2C)cc1Cl` the survival was inactive: 73%. `CC(CN)(NS(=O)(=O)c1ccccc1)c1ccccc1` (configuration not stated) was tested, and the survival was inactive: 115%. In the case of `CCOc1ccc(-c2c(C)nn3c(C)c(C(=O)Nc4cccc(Cl)c4C)cnc23)cc1OCC`, the survival is reported as inactive: 67%. For `COCCNC(=O)CCCn1c(SCC(=O)c2ccc(F)cc2)nc2c(sc3ccccc32)c1=O`, the survival was inactive: 88%. For `Cc1ccc(NC(=O)/C(C#N)=C\c2ccc(-c3ccc(Cl)cc3)o2)c(C)c1`, the survival was inactive: 69%. In the case of `O=C(CCS(=O)(=O)c1nc(-c2cccs2)cc(C(F)(F)F)n1)Nc1ccc(Br)cc1`, the survival is reported as inactive: 67%. For `COc1ccccc1C(=O)Nc1ccc2nc(SCC(=O)N3CCCC3)sc2c1`, the survival was inactive: 84%. `CCCCc1cc(O)c(CCCC)c(O)c1` was tested, and the survival was inactive: 38%. In the case of `Cc1ccc2nc(-c3ccsc3)c(Nc3ccc(C(C)C)cc3)n2c1`, the survival is reported as inactive: 130%. In the case of `Cc1ccc(C)c(Nc2nnc(-c3ccc(C)c(S(=O)(=O)N4CCN(C)CC4)c3)c3ccccc23)c1`, the survival is reported as inactive: 71%. In the case of `CCc1ccc(NC(=O)C(=O)NCCc2csc(-c3cccc(F)c3)n2)cc1`, the survival is reported as inactive: 89%. `CCOc1ccc(NC(=O)CSc2oc(-c3cccs3)nc2S(=O)(=O)c2ccc(C)cc2)cc1` was tested, and the survival was inactive: 139%.
